# ChEMBL document CHEMBL4888484, “Replenishing the malaria drug discovery pipeline: Screening and hit evaluation of the MMV Hit Generation Library 1 (HGL1) against asexual blood stage Plasmodium falciparum ,using a nano luciferase reporter read-out” (2022)
# Out of some 150,000 compounds screened, about 540 (0.36%) showed an effect of 50% or more. The list shows a part of the results.
# System: Plasmodium falciparum
# Assay: Primary screen in NF54 nanoGlo assay, in single point, at 2uM, 72h; a lower Z score goes with more inhibition
# Assay type: functional, Erythrocyte
# Conditions: timepoint 72 hour
Compound,% Inhibition [%],Z score
COc1ccc(C(O)(C(=O)NCCCCOc2ccccc2)c2ccc(OC)cc2)cc1,-1,0.1
CNc1ccnc(N(C)C[C@H]2CCCN(CCOC)C2)n1,0,0.05
CC(C)CO[C@@H](C)C(=O)NOc1ccc(F)cc1,-12,1.56
Cc1ccc(C(=O)N2CCN=C2N2CCCC2)cc1,-12,1.15
CCN1CCCn2nc([C@H]3CCCN(Cc4ccoc4)C3)cc2C1=O,-6,1.04
COc1ccc(S(=O)(=O)N(c2ccc3[nH]ccc3c2)[C@@H](C)CC(C)C)cc1OC,-1,0.22
O=C(C1CCC1)N1CCc2cc(-c3ccncc3)ccc21,3,-0.48
CCCc1nc(C(=O)N2C[C@H]3CCC[C@@]3(CO)C2)cs1,-2,0.32
CNc1nc(C(=O)N[C@H]2CCN(Cc3csc(C)n3)C[C@@H]2O)cs1,-10,1.61
Cn1ncc(C2CC2)c1C(=O)Nc1cccc2[nH]ccc12,-5,0.8
Cn1ncc2c(=O)n(CC(=O)Nc3cccc(F)c3)nnc21,0,0.06
Cn1cc(S(=O)(=O)NC[C@@](C)(O)Cc2ccsc2)cn1,-7,0.81
Cc1nc(NCc2cc3n(n2)CCCN(CC(C)C)C3)c2cccnc2n1,-3,0.33
CC(C)n1cc(S(=O)(=O)Nc2ccc(F)c(F)c2)c2cccnc21,7,-1.21
COCc1ccc(CNc2nnc3ccccn23)o1,-12,1.57
COc1cccc2nc(C[C@H]3CN(C(C)C)CC[C@H]3CC(=O)O)[nH]c12,-12,2.23
CC(C)c1cc(=O)n(Cc2cccc(F)c2)c2cc(OCC(=O)Nc3ccc(F)cc3)ccc12,-6,1.16
CC(C)Oc1cccc([C@H]2CC(O)=Nc3nc(N4CCOCC4)sc32)c1,-7,0.88
CCCN(Cc1cccc(Cl)c1)C(=O)CC1=CCNCC1,0,-0.08
CCOc1ccc(OCC(=O)N2CCc3nc(NS(C)(=O)=O)sc3C2)cc1,9,-1.08
CC(C)c1ccc(C(=O)NC2CCCCC2C(N)=O)nc1 (stereo not drawn),-3,0.47
CC(C)(C)c1ccc(C(=O)Nc2nc3nc(-c4ccccc4)cc(O)n3n2)cc1,29,-3.31
CCOc1cc(CN[C@@H](C)c2ccccc2)c(Br)cc1OCC(=O)NCc1ccccc1,-14,1.92
Cc1cc(Br)cc(C)c1NC(=O)COc1ccc2c(c1)CCCC2,-7,0.99
Cc1c(C(=O)N2CCC(CNC(=O)Cn3cccn3)CC2)ccn1C,-21,1.99
C[C@H]1CCCN(c2ncc(Br)cn2)C1,-7,0.99
CN1C[C@@H](CO)[C@H](NC(=O)c2ccccc2)C1,-12,1.62

Compound,% Inhibition [%],Z score
Cc1cc(C)cc(OCC(=O)N2CCC(c3nc4ccccc4o3)CC2)c1,-23,2.05
COc1cc(NC(=O)C2CCN(c3c(C(=O)N4CCCC4)cnc4snc(C)c34)CC2)cc(OC)c1OC,5,-0.78
Cn1cncc1[C@H]1C[C@@H]1C(=O)N1CCC(c2ccc3[nH]ccc3c2)CC1,0,0.06
COC1(OC)CC2(CN(C(=O)[C@H]3CCCO3)C2c2ccccc2)C1 (stereo partly drawn),-17,2.27
CC(C)[C@H]1CN(c2ccncc2F)C[C@@H]1C(=O)O,-15,1.52
CCCC[C@H](N)C(=O)N1CCOC2(CCC2)C1,-17,1.94
CCN(C[C@H](C)OC)C(=O)c1nn(C)c2ccccc2c1=O,13,-1.69
CC(=O)c1ccc(NC(=O)N2CCC[C@H](C(=O)c3ccc4c(c3)OCO4)C2)cc1,-12,1.56
CCS(=O)(=O)N1CCC(C(=O)OCc2ccc(OCc3nccn3C)cc2)CC1,3,-0.23
Cn1cc(NC(=O)N2CCN3C(=O)CC[C@H]3C2)cn1,-12,2.3
COc1ccc(C(OCC2OC(n3cnc4c(NC(=O)c5ccccc5)cnnc43)CC2O)(c2ccccc2)c2ccc(OC)cc2)cc1 (stereo not drawn),0,-0.06
COc1ccc2c(c1)CN(C(=O)Nc1nnn(C(C)C)n1)C2,-7,1.31
COCc1ncc(C)n1CCNC(=O)c1ccsc1,-9,1.01
COc1ccc([C@H]2CC(=O)Nc3nc(N4CCOCC4)sc32)cc1,29,-3.24
CC(=O)N1CC[C@H](COC(=O)c2ccc(C)cc2Cl)C1,-11,1.52
C[C@@H](CC1CCCC1)C(=O)NC1CCN(CCS(C)(=O)=O)CC1,-4,0.5
O=C(c1csc(-c2cccs2)n1)N1CCc2sccc2[C@H]1c1ccccc1,-7,1.41
Cc1ccsc1CN1CC(Oc2ccc(-c3noc(-c4cccnc4)n3)cc2)C1,-2,0.25
O=C1OCCN1Cc1cc(F)cc(C(F)(F)F)c1,-2,0.41
CC(OCC(F)(F)F)C(=O)NC1C2CCCCC21 (stereo not drawn),-12,1.8
Cn1cc(C(=O)NCCc2ccc(-c3ccsc3)s2)nn1,3,-0.58
Cn1nc(C(=O)N2CCc3nc(NC(=O)c4ccco4)sc3C2)ccc1=O,-11,1.79
O=C(NC1CC12CCCC2)NC1CC12CC2 (stereo not drawn),-8,1.66
C#Cc1cccc(NC(=O)CN(C)c2nc3ccccn3c2C#N)c1,-13,2.53
CCCCc1nc(-c2nccn2[C@@H](C)c2nccs2)c[nH]1,0,-0.07
CC(Oc1cccnc1)C(=O)N(C)C[C@@H]1CCCO1 (stereo partly drawn),-10,1.57
N#CC1(C#N)C(C(=O)c2ccc(Cl)cc2)C1(C#N)C#N,-26,3.05
